Here are results for 42 compounds from ChEMBL document CHEMBL4888484, “Replenishing the malaria drug discovery pipeline: Screening and hit evaluation of the MMV Hit Generation Library 1 (HGL1) against asexual blood stage Plasmodium falciparum ,using a nano luciferase reporter read-out” (2022).

Among all 150,000 compounds or so, about 540 (0.36%) showed an effect of 50% or more. The list shows a part of the results.

For this experiment, the system named is Plasmodium falciparum. Briefly: Primary screen in NF54 nanoGlo assay, in single point, at 2uM, 72h; a lower Z score goes with more inhibition. Type of experiment: functional, Erythrocyte. The note with it: timepoint 72 hour.
One may read the % Inhibition as the relative decrease from the control value, in per cent. Turning to `COc1ccccc1NC(=O)C1OC2OC3(CCCCC3)OC2C2OC3(CCCCC3)OC12` (centres undefined), the “% Inhibition” value was 3% and the Z score is listed as -0.44.
In the case of `CCN(C)S(=O)(=O)c1cncc(F)c1`, the “% Inhibition” value is -8% and the Z score turned out to be 1.01.
In the case of `NC(=O)c1cc(N)ccc1C(F)(F)F`, the “% Inhibition” value is reported as -3% and the Z score was determined as 0.55.
For `CCN(CC)c1ccc(CN(CCN(C)C)C(=O)CCc2ccccc2)c(OS(=O)(=O)CC)c1`, the “% Inhibition” value is -2% and the Z score turned out to be 0.3.
For `CS(=O)(=O)CC1(CN2CCC=Cc3ccccc32)CC1`, the “% Inhibition” value is -15% and the Z score is on record as 1.82.
For `Cc1nc(Cc2csc(-c3ccccc3)n2)n(CCCO)n1`, the “% Inhibition” value is on record as -16% and the Z score worked out at 2.86.
On the same counts, the results for `Cc1cnc(Cn2ccnc2-c2cnc(N(C)C)s2)cn1` are -13% and 1.76.
On the same counts, the results for `Cc1nc([C@H]2CCCN(CCc3ccccc3C(=O)O)C2)sc1C` are -7% and 1.01.
On the same counts, the results for `CCc1nnc(-c2ccc(=O)n(CC(=O)Nc3cccc(C)c3)c2)o1` are 3% and -0.47.
`Cc1ccc(C)c(S(=O)(=O)Cc2ccncc2)c1`: the “% Inhibition” value was -12% and the Z score is recorded as 1.52.
For `COc1cccc(C(=O)NC2CN(C(=O)OC(C)(C)C)CC2OC)c1` (centres undefined), the “% Inhibition” value turned out to be 26% and the Z score is -2.89.
Taken in the same sequence, the figures for `Cc1cc(CNC(=O)c2ccccc2[C@H]2CCNC2)ccc1F` were -5% and 0.97.
`CC(C)(C)c1ccc(C2(NC(=O)c3cn(C[C@H]4CCOC4)nn3)CCCC2)cc1`: the “% Inhibition” value was -6% and the Z score is reported as 1.13.
For the compound `COc1ccc(NC(=O)N2CCC3(CC2)CN(C)C[C@@H]3c2nnc(C(C)C)o2)c(OC)c1`, the “% Inhibition” value stood at 5% and the Z score was -0.83.
Regarding `O=C(Nc1[nH]c(=O)ncc1F)c1coc(-c2ccccc2)n1`, the “% Inhibition” value was determined as 80% and the Z score was -14.59.
Taken in the same sequence, the figures for `COC(=O)c1ccc(F)c(NCc2ccc(N(C)C)c(F)c2)c1` were -13% and 1.37.
On to `O=C(COc1ccc(Cl)cc1)N1C2CCC1CC(n1cncn1)C2` (centres undefined), for which the “% Inhibition” value is -8% and the Z score is 0.91.
In the case of `Cc1ncc2c(c1-c1noc(-c3scc4c3CCCC4)n1)CCNC2`, the “% Inhibition” value is recorded as -3% and the Z score amounted to 0.55.
For the compound `Cc1cn2c(CNC[C@@]3(c4cnn(C)c4)CCCO3)c(C)nc2s1`, the “% Inhibition” value is on record as -5% and the Z score is recorded as 0.86.
Regarding `Fc1ccc(-c2cn(C[C@H]3CCCN(Cc4ncc[nH]4)C3)nn2)cc1`, the “% Inhibition” value is -14% and the Z score turned out to be 1.97.
As for `COc1cccc(NC(=O)c2nnc(N3CCC(C)CC3)c3ccccc23)c1`, the “% Inhibition” value was -6% and the Z score is recorded as 0.7.
On the same counts, the results for `O=c1c2ccccc2ncn1C1CCN(S(=O)(=O)c2ccc(Cl)cc2)CC1` are -9% and 1.
Regarding `CCc1nc(NCc2ccccc2F)c2onc(-c3ccc(C)cc3)c2n1`, the “% Inhibition” value is -8% and the Z score is reported as 1.12.
On the same counts, the results for `O=C(NCc1cccnn1)N1CCC[C@]2(CC=CCC2)C1` are -3% and 0.32.
For `Cc1ccc(C(=O)[C@H](C#N)c2nnnn2-c2ccc(C)cc2)cc1`, the “% Inhibition” value was -12% and the Z score is recorded as 1.35.
Taken in the same sequence, the figures for `O=C1CC(C2CCCCN2c2ncnc3c2oc2ccccc23)CN1` (centres undefined) were 2% and -0.28.
Take `O=C(c1ccccc1)N1CCN(Cc2csc(C3CCCCC3)n2)CC1`: the “% Inhibition” value is -12% and the Z score came to 1.53.
On the same counts, the results for `Cc1c(C(=O)NCCc2ccccn2)cnn1[C@H]1CCS(=O)(=O)C1` are 16% and -2.07.
`O=C(Nc1ccccc1)N1CCN(C2CC2)C[C@@H]1Cc1ccccc1`: the “% Inhibition” value is listed as -15% and the Z score came to 2.28.
In the case of `COc1ccc(-c2c3c([nH]c(=O)c2C#N)CCCC3)c(OC)c1`, the “% Inhibition” value is reported as -11% and the Z score came out at 1.48.
For `CC(=O)N1CCc2cc(CNC(=O)c3ccnn3C)ccc21`, the “% Inhibition” value amounted to 0% and the Z score is recorded as -0.04.
As to `O=C(NCc1ccccc1)[C@H]1CC(=O)N(CCN2CCOCC2)C1`, the “% Inhibition” value worked out at 3% and the Z score was -0.38.
In the case of `O=S(=O)(c1cccc(Br)c1)N1CCc2[nH]cnc2C1`, the “% Inhibition” value is given as -6% and the Z score is recorded as 0.73.
On the same counts, the results for `C=CCN=C(NCCS(=O)(=O)CC)NCc1ccc(Cl)cc1` are -15% and 2.08.
Regarding `O=C(CN1CCCCCC1)N[C@H]1CCC[C@@H](CO)C1`, the “% Inhibition” value is on record as -14% and the Z score worked out at 1.87.
With `CN(C)Cc1cc(NC(=O)N[C@@]2(C)CCOc3ccccc32)ccn1`, the “% Inhibition” value is recorded as -2% and the Z score is recorded as 0.26.
With `COC(CS(=O)(=O)Nc1cnc2[nH]ccc2c1)C1CCOC1` (centres undefined), the “% Inhibition” value is reported as 2% and the Z score is -0.26.
For `O=S(=O)(c1ccc(NCCc2ccccn2)cc1)N1CCOCC1`, the “% Inhibition” value was -10% and the Z score was found to be 1.72.
Regarding `Cn1c(C(C)(C)C)nc2cc(NC3CCC4(CC3)OCCO4)ccc21`, the “% Inhibition” value was 38% and the Z score was -4.93.
For `O=C(Nc1ccc(-c2nnc3n2CCCCCC3)cc1)c1ccco1`, the “% Inhibition” value is on record as -15% and the Z score was 3.12.
Consider `C[C@H]1CCCCN1CCNC(=O)C1CCN(S(=O)(=O)c2cc(Cl)ccc2Cl)CC1`, for which the “% Inhibition” value is 29% and the Z score is -2.94.
Take `Clc1cccc(-c2ccc(CN3CCN([C@H]4CCNC4)CC3)o2)c1`: the “% Inhibition” value is -17% and the Z score worked out at 1.55.
